# Measured values as given in PubChem BioAssay AID1468 (National Center for Advancing Translational Sciences (NCATS), 2008).
# Hit rate of the full screen: of about 280,000 compounds, about 1,100 (0.39%) were called active. Inconclusive means that the source gave no clear call. Such entries were picked first, then a sample of the others. The call rests on the fitted dose curve; in most records, active means well fitted inhibition curve with a large enough effect; inconclusive means small, poorly fitted or top-dose-only effect, or effect the other way; inactive means flat fitted curve, though single readings scatter. Potencies of inconclusive entries are left out as doubtful fits.
# Target: Microtubule-associated protein tau (Homo sapiens) (UniProt P10636)
# Assay: qHTS for Inhibitors of Tau Fibril Formation, Fluorescence Polarization; further: nearly all actives have a fitted effect of over 55% in size
# Details: K18 P301L tau heparin fibrillization, Alexa594 FP, 6 h; series mostly up to 57.7 µM; activity, negative = inhibition: at the top concentration
# Method in brief: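 Read-out: fluorescence polarization of Alexa 594-labeled tau (0.24 uM), 555 nm excitation, 632 nm emission. Mixtures held 15 uM unlabeled K18 P301L, compound and 20 uM heparin, pH 7 acetate buffer, incubated 6 hr at 37 C.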
# On the % scale 0 is the no-effect control and ±100 the full control effect; potency means the concentration at half of the fitted maximal effect; tags describe the fitted curve by direction and shape.
# Chain of UniProt P10636 (P10636 whole entry, looked up): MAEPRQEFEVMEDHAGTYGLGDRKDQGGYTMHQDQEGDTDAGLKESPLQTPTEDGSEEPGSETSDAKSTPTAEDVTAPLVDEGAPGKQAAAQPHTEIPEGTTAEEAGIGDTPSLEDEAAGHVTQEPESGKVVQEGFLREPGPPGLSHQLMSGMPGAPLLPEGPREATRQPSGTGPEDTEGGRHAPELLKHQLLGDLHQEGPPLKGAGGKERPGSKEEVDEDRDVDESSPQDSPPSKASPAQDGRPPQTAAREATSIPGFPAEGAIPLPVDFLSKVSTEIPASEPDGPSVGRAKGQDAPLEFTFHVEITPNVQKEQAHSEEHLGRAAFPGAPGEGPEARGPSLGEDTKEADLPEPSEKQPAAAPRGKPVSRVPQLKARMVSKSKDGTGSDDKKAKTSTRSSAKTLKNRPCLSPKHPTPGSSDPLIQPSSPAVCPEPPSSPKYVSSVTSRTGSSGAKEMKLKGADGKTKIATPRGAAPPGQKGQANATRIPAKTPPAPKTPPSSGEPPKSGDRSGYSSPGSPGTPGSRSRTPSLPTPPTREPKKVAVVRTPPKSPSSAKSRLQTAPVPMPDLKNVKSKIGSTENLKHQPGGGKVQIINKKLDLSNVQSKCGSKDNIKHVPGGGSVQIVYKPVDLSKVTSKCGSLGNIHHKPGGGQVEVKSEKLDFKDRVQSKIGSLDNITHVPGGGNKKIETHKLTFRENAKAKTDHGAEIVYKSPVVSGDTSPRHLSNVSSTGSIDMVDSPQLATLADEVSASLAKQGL
Compound,Potency,"activity, negative = inhibition"
CC1=NN(c2ccc(C(=O)O)cc2)C(=O)/C1=C\c1ccc(OC(=O)c2cccs2)cc1,"inconclusive [inhibitor, partial curve]",
Nc1nc(NCc2ccccc2)nc(NCc2ccccc2)c1[N+](=O)[O-],"inconclusive [inhibitor, single point]",
CC1(C)CC(=O)C/C(=N\NC(=O)C2CC2c2ccccc2)C1 (stereo not drawn),"inconclusive [inhibitor, single point]",
CCCCNC(=O)/C=C/c1cccs1,"inconclusive [inhibitor, single point]",
Cc1sc2nc(CN3CCCCC3)nc(Nc3ccc4c(c3)OCCO4)c2c1C,,inactive: -0.302%
O=C(CCN1CCC(c2ccccc2)C1)c1ccc2c(c1)OCCO2 (stereo not drawn),"inconclusive [activator, partial curve]",
CCOC(=O)c1sc(NCCNc2nc(C)c(C(=O)OCC)s2)nc1C,,inactive: 0.874%
CN(C)S(=O)(=O)c1cc(NC(=O)COC(=O)CCSc2ccc(Cl)cc2)ccc1Cl,"inconclusive [inhibitor, partial curve]",
COc1ccc(CNC(=O)Cn2ccc3cc(S(=O)(=O)N4CCCCCC4)ccc32)cc1OC,,inactive: 6.46%
C1CCCCCC(=NNc2nn[nH]n2)CCCCC1,,inactive: -12.9%
O=C(Nc1ccccc1)/C(=C/c1ccccc1)c1ccccc1,active: 20 µM,
CC(C)C[C@@H](CC(=O)N[C@@H](CCC(=O)O)CC(=O)O)NC(=O)[C@@H]1CCCC[C@H]1NC(=O)C[C@@H](NC(=O)C[C@H](CO)NC(=O)[C@@H]1CNCC[C@H]1N)C(C)C,,inactive: -4.65%
Cc1ccc(C(=O)c2oc3ccccc3c2NC(=O)c2cc(=O)c3ccccc3o2)cc1,,inactive: -2.89%
COc1ccc(N2CCN(c3nc(Cl)nc(N4CCOCC4)n3)CC2)cc1,"inconclusive [activator, partial curve, poor fit]",
CCNc1ccc(N=Nc2c(C)n(C)n(-c3ccccc3)c2=O)cc1,,inactive: 2.61%
O=C(CSc1nnc(-c2ccccc2Cl)o1)Nc1ccccn1,"inconclusive [inhibitor, single point]",
COc1ccc2nc(NC(=O)CSc3nc(SC)ns3)sc2c1,"inconclusive [inhibitor, partial curve]",
O=C(N/N=C/c1sc(N2CCOCC2)nc1-c1ccccc1)c1cccc(S(=O)(=O)N2CCOCC2)c1,"inconclusive [activator, partial curve, poor fit]",
CC(=O)Nc1ccc(S(=O)(=O)Nc2cccc(-c3ccc(N4CCC(C)CC4)nn3)c2)cc1,"inconclusive [inhibitor, single point]",
CC(=O)c1ccc(NC(=O)Nc2ccc(Cl)cc2)cc1,"inconclusive [inhibitor, single point]",
Cc1ccc(OC(=O)c2cc(-c3ccccc3)nc3ccc(C)cc23)cc1,"inconclusive [inhibitor, partial curve]",
COCCNC(=O)c1ccc2c(c1)N(Cc1cccc(Cl)c1)C(=O)c1ccccc1S2(=O)=O,"inconclusive [inhibitor, partial curve]",
O=C1OCCC1Sc1nnc(-c2ccc(O)cc2)o1 (stereo not drawn),,inactive: -4.47%

Compound,Potency,"activity, negative = inhibition"
CCc1ccc(S(=O)(=O)c2nnn3c2nc(NCCc2ccccc2)c2sccc23)cc1,"inconclusive [inhibitor, partial curve]",
CN(C)S(=O)(=O)N(CC(=O)NCCSCc1ccccc1Cl)c1ccccc1,,inactive: 3.56%
Cc1ccc(S(=O)(=O)Nc2ccc(NC(=O)Nc3ccc(F)cc3F)cc2)cc1,"inconclusive [inhibitor, single point]",
COc1cc(C(=O)NCCC(=O)NC(C)C)cc(OC)c1OC,"inconclusive [inhibitor, single point]",
Cc1cccc(N2CCN(S(=O)(=O)c3cc(Br)cc4c3N(C(=O)C3CC3)CC4)CC2C)c1 (stereo not drawn),"inconclusive [inhibitor, full curve, poor fit]",
CCC(=O)Nc1cccc2c1C(=O)N(C)C2=O,"inconclusive [inhibitor, single point]",
COc1ccc(N2CCN(c3nc4ccccc4n3CC(=O)c3ccccc3)CC2)cc1,,inactive: 11.3%
COc1ccc(-c2noc(-c3ccc(NCc4ccc(C)cc4)c([N+](=O)[O-])c3)n2)cc1OC,"inconclusive [inhibitor, single point]",
Cn1c(=O)c2c(nc(SCC(=O)Nc3ccc(OC(F)(F)F)cc3)n2Cc2cccc(C(F)(F)F)c2)n(C)c1=O,"inconclusive [inhibitor, full curve]",
O=C(NCc1ccccc1)c1ccc2c(c1)OCCO2,,inactive: -6.86%
Cn1c(=O)c([N+](=O)[O-])c(NCc2ccccc2Cl)c2ccccc21,,inactive: -0.75%
Cc1[nH][nH]c(=O)c1C(c1ccc(-c2ccc(F)cc2)o1)c1c(C)[nH][nH]c1=O,"inconclusive [inhibitor, partial curve]",
Cn1c(=O)c2c(SCc3ccccn3)nc(CC(C)(C)C)nc2n(C)c1=O,"inconclusive [inhibitor, partial curve, poor fit]",
O=C(CS(=O)(=O)Cc1ccccc1)Nc1ccc(S(=O)(=O)N2CCCCCC2)cc1,"inconclusive [inhibitor, single point]",
COc1ccccc1NC(=O)C1=C(C)Nc2c(C(=O)Nc3ccc(F)cc3)cnn2C1c1ccc(Cl)cc1 (stereo not drawn),"inconclusive [inhibitor, single point]",
O=S(=O)(Nc1ccc(-c2csc(-c3ccccc3)n2)cc1)c1ccccc1,"inconclusive [inhibitor, partial curve]",
CC1(C)Nc2ccc(O)cc2-c2c1ssc2=S,"inconclusive [inhibitor, partial curve]",
CCOc1cc(/C=N/N2C(=O)NC3(CCCCC3)C2=O)cc(Br)c1O,,inactive: 2.84%
COc1ccccc1NC(=O)N1CC(=O)Nc2sc3c(c2C1c1ccccc1)CCCC3 (stereo not drawn),,inactive: 10%
NC(=O)COC(=O)c1ccc(Cl)c(S(=O)(=O)N(Cc2ccccc2)c2ccc(Cl)cc2)c1,"inconclusive [inhibitor, partial curve, poor fit]",
Cc1ccc(S(=O)(=O)Cc2c(C)noc2C)cc1,,inactive: 4.61%
Cc1ccc(C2CC(=O)Oc3cc(O)ccc32)cc1 (stereo not drawn),"inconclusive [inhibitor, single point]",
COc1ccc(-c2cc(Nc3ccccc3NC(=O)C(F)(F)F)n(CCC#N)n2)cc1,"inconclusive [activator, single point]",

Compound,Potency,"activity, negative = inhibition"
Fc1ccc(Nc2nc(SCc3ccc(Cl)cc3)nc3ccccc23)cc1,active: 7.94 µM,
COc1ccc(S(=O)(=O)N(Cc2nc(-c3ccccc3)no2)C2CCCCC2)cc1,,inactive: -8.17%
CC1(C)CC(=O)C(C=NCC(N)=O)=C(O)C1,"inconclusive [inhibitor, single point]",
O=C1CC(c2ccc(O)c(O)c2)Oc2c1ccc(O)c2O (stereo not drawn),"inconclusive [inhibitor, single point]",
O=C(C/C(=N\NC(=O)c1ccccc1Br)C(F)(F)F)c1cccs1,"inconclusive [inhibitor, full curve, poor fit]",
O=C1CCCC(=O)C1CS(=O)(=O)c1ccccc1,active: 28.2 µM,
CN(C)Cc1cc(O)c(CN(C)C)cc1O,"inconclusive [inhibitor, partial curve]",
Cc1noc(Cn2c(=O)c3cc4c(cc3n(CC(=O)Nc3ccc(C(C)C)cc3)c2=O)OCO4)n1,"inconclusive [inhibitor, single point]",
O=C(CSc1nnc(-c2ccc(Cl)cc2)n1Cc1ccco1)c1cccs1,,inactive: 12.7%
CNCC(O)Cn1c(C(F)(F)F)nc2ccccc21 (stereo not drawn),,inactive: 0.195%
O=C1C(=Cc2ccco2)C(=O)c2ccccc21,"inconclusive [inhibitor, partial curve]",
CC(=O)c1cccc(NC(=O)Cn2c(-c3cncs3)nc3ccccc32)c1,,inactive: -9.46%
CCOC(=O)C(=O)Cc1nc2ccccc2s1,,inactive: -0.802%
O=C1CC(c2nnc(Cc3ccc(F)cc3)o2)CN1c1ccccc1 (stereo not drawn),"inconclusive [activator, partial curve]",
Fc1ccccc1-n1ncc2c1ncn1nc(COc3ccc(Cl)cc3)nc21,"inconclusive [inhibitor, partial curve, poor fit]",
COc1ccccc1NC(=O)c1sc2nc(C)c(C(=O)Nc3ccc(Cl)cc3)c(-c3ccc(Br)cc3)c2c1N,"inconclusive [inhibitor, partial curve, poor fit]",
Cc1cc(OCc2nc(-c3ccc(NC(=O)c4cccnc4)cc3)no2)ccc1Cl,"inconclusive [inhibitor, partial curve]",
Cc1cc2c(n1-c1ccc(C(=O)NCCc3ccc(Cl)cc3)cc1)CCC(C)C2 (stereo not drawn),"inconclusive [inhibitor, single point]",
Cn1cnnc1SCC(=O)Nc1ccc2nc(SCc3cccc4ccccc34)sc2c1,"inconclusive [inhibitor, full curve, poor fit]",
O=c1[nH]c2ccccc2n2c(-c3ccccc3)nnc12,active: 14.1 µM,
Cc1c(Cl)cccc1NC(=O)C(C)n1nc(C)c2c(C)n(-c3ccccc3)nc2c1=O (stereo not drawn),,inactive: 1.86%
Cc1sc2c(c1C)C(=O)/C(=C\Nc1ccccn1)S(=O)(=O)N2C,"inconclusive [inhibitor, single point]",
